From PMC4336329 (PLoS ONE, 2015)
About 14,000 (4.5%) of roughly 310,000 compounds showed an effect of 50% or more. The effect is printed as a negative number. Some of the results follow.

What follows are compounds tested against human ether-à-go-go-related gene (hERG) potassium channel (human, UniProt Q12809) (assay: primary screen, population patch clamp on CHO cells stably expressing hERG).
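Also: peak tail current of the secondary pulse compared with the same well before compound.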

Chain of human ether-à-go-go-related gene (hERG) potassium channel (Q12809 whole entry, looked up): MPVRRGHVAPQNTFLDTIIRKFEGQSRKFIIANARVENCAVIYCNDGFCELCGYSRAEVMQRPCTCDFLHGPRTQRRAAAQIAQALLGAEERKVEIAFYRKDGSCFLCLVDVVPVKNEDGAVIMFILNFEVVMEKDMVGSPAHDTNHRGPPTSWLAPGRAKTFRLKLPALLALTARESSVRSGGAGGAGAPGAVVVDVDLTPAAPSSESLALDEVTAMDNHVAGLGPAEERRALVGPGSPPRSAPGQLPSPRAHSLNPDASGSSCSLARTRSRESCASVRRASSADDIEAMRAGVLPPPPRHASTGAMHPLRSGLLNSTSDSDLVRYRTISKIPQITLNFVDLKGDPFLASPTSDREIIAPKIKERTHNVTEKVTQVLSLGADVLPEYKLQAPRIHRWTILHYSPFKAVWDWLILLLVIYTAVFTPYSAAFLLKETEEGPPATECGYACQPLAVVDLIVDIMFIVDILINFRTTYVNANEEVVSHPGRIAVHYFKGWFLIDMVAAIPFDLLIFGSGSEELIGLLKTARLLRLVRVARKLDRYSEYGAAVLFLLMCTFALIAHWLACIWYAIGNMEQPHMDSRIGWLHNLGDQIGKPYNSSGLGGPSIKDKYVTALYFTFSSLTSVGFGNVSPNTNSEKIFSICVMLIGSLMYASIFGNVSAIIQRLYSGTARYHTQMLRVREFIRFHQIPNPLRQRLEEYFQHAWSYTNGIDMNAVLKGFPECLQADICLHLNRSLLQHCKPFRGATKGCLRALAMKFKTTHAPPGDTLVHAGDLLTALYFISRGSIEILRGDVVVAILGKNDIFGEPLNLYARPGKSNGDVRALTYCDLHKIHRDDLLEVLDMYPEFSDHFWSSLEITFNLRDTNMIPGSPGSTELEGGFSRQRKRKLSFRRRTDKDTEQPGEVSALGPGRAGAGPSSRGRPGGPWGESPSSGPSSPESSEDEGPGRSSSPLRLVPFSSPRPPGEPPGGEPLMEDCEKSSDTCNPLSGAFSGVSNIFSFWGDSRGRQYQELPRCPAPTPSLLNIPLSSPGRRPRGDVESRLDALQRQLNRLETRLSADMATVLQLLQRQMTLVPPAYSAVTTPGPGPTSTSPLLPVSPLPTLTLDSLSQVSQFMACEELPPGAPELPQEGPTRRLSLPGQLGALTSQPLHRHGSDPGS

Row | Compound | hERG current change (%, negative = inhibition) at 10uM [%]
1 | COc1ccc(C(=O)N2CCN(S(=O)(=O)c3cc(Cl)ccc3OC)CC2)cc1 | -27.1
2 | O=C(CNS(=O)(=O)c1ccc(Br)s1)N1CCN(C(=O)c2ccco2)CC1 | -42.9
3 | Cc1cccc(Cl)c1NC(=S)NN | 11.2
4 | Cc1cccc(S(=O)(=O)c2c(N)n(/N=C/c3ccco3)c3nc4ccccc4nc23)c1 | 5.25
5 | CC(=O)O[C@]1(C(C)=O)CC[C@H]2[C@@H]3C=CC4=CC(=O)C=C[C@]4(C)[C@H]3CC[C@@]21C | 15.1
6 | CCCN(CC(=O)Nc1cc(C)on1)CC(=O)Nc1ccccc1C | 4.99
7 | CC(C)n1cc([C@@H]2C[C@H]3CN(Cc4cccc(Cl)c4)C(=O)[C@]34CCCN24)cn1 | -33.7
8 | Cc1nc2cc(-c3ccccc3)nn2c(N)c1-c1ccccc1 | 3.43
9 | Cc1cc(C)c(NC(=O)Cc2ccc(-n3cccc3)cc2)c(C)c1 | 14.2
10 | Cc1cccc(-n2c(SCC(=O)NCc3ccc4c(c3)OCO4)nc3ccccc3c2=O)c1 | 10.8
11 | CC(C)CCNC(=O)C(C)N(C(=O)Cn1nnc(-c2ccc(F)cc2)n1)C1CCCC1 (centres unmarked) | -20.1
12 | CC(C)NS(=O)(=O)c1cccc2nsnc12 | 2.23
13 | COc1ccc(N2C(=O)/C(=C/c3ccc(N(C)C)o3)C(=O)NC2=S)cc1 | 3.28
14 | Cc1ccc(C)c(OCCC(=O)OC(C)C(=O)Nc2c(C)n(C)n(-c3ccccc3)c2=O)c1 (centres unmarked) | -21.4
15 | O=C(CNC(=O)c1ccc(Br)o1)NCc1ccc2c(c1)OCO2 | 6.72
16 | O=C(N/N=C/c1cccc([N+](=O)[O-])c1)c1cccc(Br)c1 | 17.1
17 | COc1cc(Cn2c(=O)c3c(OC)c(C)cnc3n(C)c2=O)cc(OC)c1 | 14.1
18 | CCc1nnc(NS(=O)(=O)c2ccc(N=Cc3c(C)[nH]n(-c4ccc(C)c(C)c4)c3=O)cc2)s1 | 15.9
19 | CCOc1ccc2nc(NC(=O)CN3CCN(CC)CC3)sc2c1 | -36.7
20 | CCOC(=O)c1sc(=NC(=O)c2ccco2)n(C)c1C | 20.3
21 | O=S1(=O)CCC(N=Nc2c(O)n(Cc3ccccc3)c3ccccc23)C1 (centres unmarked) | -25.1
22 | COc1ccccc1C(=O)N/C(=C\c1ccccc1)C(=O)NC(Cc1ccccc1)C(=O)O (centres unmarked) | 13

Row | Compound | hERG current change (%, negative = inhibition) at 10uM [%]
23 | O=C(COC(=O)c1ccc(Cl)cc1O)NC(=O)C1CCCCC1 | 13.1
24 | COc1ccc(C(=O)CSc2nc(C)cc(=O)[nH]2)cc1C | 2.62
25 | N#CCC(=O)Nc1ccc(C(=O)OCC(=O)NC2CCCCCC2)cc1 | 14.9
26 | CN1CCN(S(=O)(=O)c2cc([N+](=O)[O-])ccc2N2CCCCCC2)CC1 | -16.9
27 | COc1cc(/C=N/O)ccc1OCc1ccc([N+](=O)[O-])cc1 | -23.5
28 | CC(=O)c1cccc(NC(=O)c2cc(S(=O)(=O)N3CCOCC3)cs2)c1 | -9.79
29 | CCC(CC)NC(=O)c1cc2c(C)nn(Cc3ccccc3Cl)c2s1 | 10.9
30 | NNc1nc(-c2ccccc2)cc(-c2ccccc2)n1 | 16.2
31 | CNS(=O)(=O)c1cccc(C(=O)OCC(=O)N(Cc2ccccc2)C(C)(C)C)c1 | -4.86
32 | Cc1nc(NCCc2ccccc2)c(C#N)c(C)c1[N+](=O)[O-] | 6.5
33 | O=C1N(Cc2cccnc2)C[C@@H]2C[C@@H](c3ccc4nsnc4c3)N3CCC[C@@]123 | -11.3
34 | N#Cc1c(/N=C/c2ccco2)sc2c1CCCCC2 | 1.96
35 | Br.CCCCC1(C(=O)OCC)CC(CSC(=N)N)OC1=O (centres unmarked) | -0.297
36 | CCc1cc(C(=O)OC)c(NC(=O)CCC(=O)O)s1 | 5.39
37 | COc1ccc(Cc2noc(CN3CCN(c4ccc(Cl)cn4)CC3)n2)cc1OC | -33.6
38 | Cc1n[nH]c(C)c1Sc1ccccc1N=Cc1cc(Cl)cc([N+](=O)[O-])c1O | -10.9
39 | CCN1CCN(C(=O)CN(c2ccccc2C)S(C)(=O)=O)CC1 | 6.9
40 | FC(F)(F)c1ccc(CN2CCCCCC2)cc1 | -24.4
41 | O=C(CCCC1=NS(=O)(=O)c2ccccc2N1)OCc1ccc(Cl)cc1 | -10
42 | COc1ccccc1S(=O)(=O)Cc1ccc(C(=O)NCc2ccc3c(c2)OCO3)o1 | -1.87
43 | N=c1c(C(=O)NCc2ccc(F)cc2)cc2c(=O)n3ccccc3nc2n1CC1CCCO1 (centres unmarked) | -77.4
44 | COC(=O)c1c(NC(=O)c2ccccc2F)sc2c1C(C(=O)OC)CC2 (centres unmarked) | 9.38
